Our source for the cytotoxicity call and growth inhibition call values is the antibiotic and cytotoxicity screens of Wong et al. (2023).

The subject of one test is HSkMC. The test is described as follows: cytotoxicity call (relative viability < 0.9). Particulars: 10 µM.
Another test concerns HepG2. The test is described as follows: cytotoxicity call (relative viability < 0.9). As to conditions: 10 µM.
In the next test the test system is S. aureus RN4220. The test is described as follows: growth inhibition call (relative growth <= 0.2). Particulars: 50 µM.

The structures appear in SMILES notation. The list shows a part of the results.

Turning to `C[C@@H]1CCCCO[C@H](CN(C)C(=O)CCC(F)(F)F)[C@H](C)CN([C@@H](C)CO)C(=O)c2cc(NC(=O)Cc3ccccc3)ccc2O1`, the cytotoxicity call with HSkMC and in the test with HepG2 was “inactive” throughout. Moreover, the growth inhibition call in the test on S. aureus RN4220 was “inactive”.

On to `CC(=O)N1CCn2c(-c3cnn(C)c3)cnc2C12CCN(S(=O)(=O)C1CC1)CC2`, for which the cytotoxicity call in the test on HSkMC and with HepG2 was “inactive” in each case. Also, the growth inhibition call in the test with S. aureus RN4220 was “inactive”.

On to `COc1ccc(S(=O)(=O)N2C[C@@H](O)COC[C@@H]3O[C@@H](CC(=O)NCc4ccc(Cl)c(Cl)c4)CC[C@H]32)cc1`, for which the cytotoxicity call in the test on HSkMC is “inactive”. Also, the cytotoxicity call in the test on HepG2 is “active”. The growth inhibition call with S. aureus RN4220 is “inactive”.

For `COCC#Cc1ccc([C@@H]2[C@H](CO)N3C(=O)CN(C(=O)c4ccncc4)C[C@@H]23)cc1`, the cytotoxicity call in the test with HSkMC and with HepG2 was “inactive” throughout. Further, the growth inhibition call in the test on S. aureus RN4220 is “inactive”.

On to `C[C@@H](CCO)Nc1nc2c([nH]1)c(=O)n(C)c(=O)n2C`, for which the cytotoxicity call in the test on HSkMC and in the test with HepG2 was “inactive” throughout. Further, in the test on S. aureus RN4220, the growth inhibition call is “inactive”.

As to `CC1CCC2(C)C(C=O)=CCCC2C1(C)CC1OC(O)C(=O)C12CO2` (centres undefined), the cytotoxicity call in the test on HSkMC is “inactive”. Besides, the cytotoxicity call in the test on HepG2 was “active”. Moreover, the growth inhibition call in the test with S. aureus RN4220 was “active”.

Turning to `Cc1cc(C(F)(F)F)cc(Cl)n1`, the cytotoxicity call in the test with HSkMC and in the test on HepG2 was “inactive” throughout. In addition, the growth inhibition call in the test on S. aureus RN4220 was “inactive”.

For the molecule `Cc1noc(C)c1NC(=O)N(C)C[C@@H]1Oc2ccc(NS(=O)(=O)c3c(C)noc3C)cc2CC(=O)N([C@H](C)CO)C[C@H]1C`, the cytotoxicity call in the test on HSkMC and in the test on HepG2 was “inactive” throughout. In addition, in the test with S. aureus RN4220, the growth inhibition call is “inactive”.

With `C[C@H]1CN([C@@H](C)CO)S(=O)(=O)c2ccc(/C=C/c3ccccc3)cc2O[C@H]1CN(C)C(=O)Nc1cc(F)ccc1F`, the cytotoxicity call with HSkMC and in the test with HepG2 was “inactive” each time. Moreover, the growth inhibition call in the test on S. aureus RN4220 was “inactive”.

As for `C[C@H](CO)N1C[C@H](C)[C@H](CN(C)C(=O)Nc2ccc3c(c2)OCO3)OCCCC[C@H](C)Oc2ccc(NS(=O)(=O)c3ccc(F)cc3)cc2C1=O`, the cytotoxicity call with HSkMC and in the test with HepG2 was “inactive” throughout. Moreover, the growth inhibition call in the test on S. aureus RN4220 is “inactive”.

For the molecule `C[C@@H]1CN([C@@H](C)CO)C(=O)c2cc(NC(=O)NC3CCCCC3)ccc2O[C@@H]1CN(C)Cc1ccc(-c2ccccc2)cc1`, the cytotoxicity call in the test on HSkMC and in the test on HepG2 was “active” throughout. In the test with S. aureus RN4220, the growth inhibition call is “inactive”.

In the case of `COc1ccc(S(=O)(=O)N(C)C[C@@H]2Oc3c(NS(=O)(=O)c4ccc(C)cc4)cccc3C(=O)N([C@@H](C)CO)C[C@H]2C)cc1`, the cytotoxicity call in the test with HSkMC and with HepG2 was “inactive” in each case. The growth inhibition call in the test on S. aureus RN4220 was “inactive”.

For the molecule `C[C@H](CO)N1C[C@H](C)[C@@H](CN(C)Cc2ccc(C(=O)Nc3ccccc3N)cc2)Oc2ccc(NC(=O)Cn3cnnn3)cc2C1=O`, the cytotoxicity call with HSkMC and in the test with HepG2 was “inactive” each time. Further, the growth inhibition call with S. aureus RN4220 was “inactive”.

Turning to `O.OCC(O)C(O)C(OC1OC(CO)C(O)C(O)C1O)C(O)CO` (centres undefined), the cytotoxicity call in the test with HSkMC and in the test on HepG2 was “inactive” throughout. Also, the growth inhibition call in the test on S. aureus RN4220 is “inactive”.

`Cc1ccccc1NC(=N)N=C(N)N`: in the test with HSkMC, the cytotoxicity call is “inactive”. For the same molecule, in the test with HepG2, the cytotoxicity call is “active”. The growth inhibition call in the test on S. aureus RN4220 is “inactive”.

With `COc1ccc(S(=O)(=O)N(C)C[C@@H]2OCCCC[C@@H](C)Oc3ccc(NS(=O)(=O)c4cn(C)cn4)cc3C(=O)N([C@@H](C)CO)C[C@@H]2C)cc1`, the cytotoxicity call in the test on HSkMC and in the test with HepG2 was “inactive” each time. The growth inhibition call in the test with S. aureus RN4220 was “inactive”.

Regarding `C[C@H](CO)N1C[C@H](C)[C@@H](CN(C)C(=O)NC2CCCCC2)OCCCC[C@H](C)Oc2ccc(NC(=O)c3ccncc3)cc2C1=O`, the cytotoxicity call with HSkMC and in the test with HepG2 was “inactive” in each case. Moreover, in the test on S. aureus RN4220, the growth inhibition call was “inactive”.

In the case of `C[C@H]1CN([C@@H](C)CO)C(=O)Cc2cc(NC(=O)c3ccncc3)ccc2O[C@@H]1CN(C)S(=O)(=O)c1cn(C)cn1`, the cytotoxicity call in the test on HSkMC (human skeletal muscle cells) and in the test with HepG2 was “inactive” in each case. The growth inhibition call in the test on S. aureus RN4220 was “inactive”.

Consider `C[C@@H]1CN([C@H](C)CO)S(=O)(=O)c2ccc(C#CCN(C)C)cc2O[C@H]1CN(C)C(=O)c1ccccc1F`, for which the cytotoxicity call with HSkMC and in the test on HepG2 was “inactive” in each case. Moreover, the growth inhibition call in the test with S. aureus RN4220 is “inactive”.

As for `C[C@H](CO)N1C[C@H](C)[C@@H](CN(C)Cc2ccc(Cl)c(Cl)c2)Oc2c(NC(=O)C3CCCCC3)cccc2C1=O`, the cytotoxicity call with HSkMC and with HepG2 was “inactive” in each case. In addition, the growth inhibition call in the test on S. aureus RN4220 is “inactive”.

As to `C[C@H](CO)N1C[C@H](C)[C@@H](CN(C)S(=O)(=O)c2cn(C)cn2)Oc2c(NS(=O)(=O)c3ccc(F)cc3)cccc2C1=O`, the cytotoxicity call in the test with HSkMC and with HepG2 was “inactive” in each case. Further, the growth inhibition call in the test with S. aureus RN4220 was “inactive”.

With `C[C@H]1CN([C@@H](C)CO)C(=O)c2cc(NS(=O)(=O)c3ccc(F)cc3)ccc2O[C@@H]1CN(C)Cc1ccncc1`, the cytotoxicity call with HSkMC and with HepG2 was “inactive” in each case. Besides, the growth inhibition call with S. aureus RN4220 is “inactive”.

As for `COc1cc2c(cc1OC)CN(C(=O)[C@H]1[C@@H]3C(=O)O[C@@H](c4ccccc4)[C@@H](c4ccccc4)N3[C@@H](c3ccc(O)cc3)[C@]13C(=O)Nc1ccc(C#CC4(O)CCCCCC4)cc13)CC2`, the cytotoxicity call in the test with HSkMC and with HepG2 was “inactive” throughout. Also, the growth inhibition call in the test on S. aureus RN4220 is “inactive”.

For `C[C@H]1CN([C@@H](C)CO)C(=O)c2cc(NS(=O)(=O)c3ccc(Cl)cc3)ccc2O[C@H]1CN(C)C(=O)Nc1ccc(C(F)(F)F)cc1`, the cytotoxicity call with HSkMC and with HepG2 was “inactive” in each case. Further, the growth inhibition call in the test with S. aureus RN4220 is “inactive”.

Regarding `C[C@@H]1CN([C@@H](C)CO)C(=O)Cc2cc(NS(=O)(=O)c3cn(C)cn3)ccc2O[C@H]1CN(C)C`, the cytotoxicity call in the test with HSkMC and with HepG2 was “inactive” throughout. Moreover, the growth inhibition call in the test on S. aureus RN4220 is “inactive”.

For the molecule `Cc1ccc(S(=O)(=O)N(C)C[C@H]2Oc3c(NS(=O)(=O)c4ccccc4)cccc3C(=O)N([C@@H](C)CO)C[C@H]2C)cc1`, the cytotoxicity call in the test with HSkMC and in the test with HepG2 was “inactive” each time. For the same molecule, the growth inhibition call with S. aureus RN4220 was “inactive”.

For `CC(CC(=O)C1OC1(C)C)C1C(=O)CC2(C)C3=CCC4C(C)(C)C(OC5OCC(O)C(O)C5O)CCC45CC35C(O)CC12C` (centres undefined), the cytotoxicity call in the test with HSkMC is “inactive”. For the same molecule, the cytotoxicity call with HepG2 was “active”. Further, the growth inhibition call in the test on S. aureus RN4220 is “inactive”.

As for `CCCCCCCCCC(=O)O`, the cytotoxicity call with HSkMC and in the test on HepG2 was “inactive” in each case. In addition, the growth inhibition call with S. aureus RN4220 was “inactive”.
